# Measurements reported in PMC4336329 (PLoS ONE, 2015).
# The campaign covered roughly 310,000 compounds. About 14,000 (4.5%) showed an effect of 50% or more. The effect is printed as a negative number. The list shows a part of the results.
# Molecular target: human ether-à-go-go-related gene (hERG) potassium channel (human, UniProt Q12809)
# Test: primary screen, population patch clamp on CHO cells stably expressing hERG
# 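Also: peak tail current of the secondary pulse compared with the same well before compound.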
# Sequence of human ether-à-go-go-related gene (hERG) potassium channel (Q12809 whole entry, looked up): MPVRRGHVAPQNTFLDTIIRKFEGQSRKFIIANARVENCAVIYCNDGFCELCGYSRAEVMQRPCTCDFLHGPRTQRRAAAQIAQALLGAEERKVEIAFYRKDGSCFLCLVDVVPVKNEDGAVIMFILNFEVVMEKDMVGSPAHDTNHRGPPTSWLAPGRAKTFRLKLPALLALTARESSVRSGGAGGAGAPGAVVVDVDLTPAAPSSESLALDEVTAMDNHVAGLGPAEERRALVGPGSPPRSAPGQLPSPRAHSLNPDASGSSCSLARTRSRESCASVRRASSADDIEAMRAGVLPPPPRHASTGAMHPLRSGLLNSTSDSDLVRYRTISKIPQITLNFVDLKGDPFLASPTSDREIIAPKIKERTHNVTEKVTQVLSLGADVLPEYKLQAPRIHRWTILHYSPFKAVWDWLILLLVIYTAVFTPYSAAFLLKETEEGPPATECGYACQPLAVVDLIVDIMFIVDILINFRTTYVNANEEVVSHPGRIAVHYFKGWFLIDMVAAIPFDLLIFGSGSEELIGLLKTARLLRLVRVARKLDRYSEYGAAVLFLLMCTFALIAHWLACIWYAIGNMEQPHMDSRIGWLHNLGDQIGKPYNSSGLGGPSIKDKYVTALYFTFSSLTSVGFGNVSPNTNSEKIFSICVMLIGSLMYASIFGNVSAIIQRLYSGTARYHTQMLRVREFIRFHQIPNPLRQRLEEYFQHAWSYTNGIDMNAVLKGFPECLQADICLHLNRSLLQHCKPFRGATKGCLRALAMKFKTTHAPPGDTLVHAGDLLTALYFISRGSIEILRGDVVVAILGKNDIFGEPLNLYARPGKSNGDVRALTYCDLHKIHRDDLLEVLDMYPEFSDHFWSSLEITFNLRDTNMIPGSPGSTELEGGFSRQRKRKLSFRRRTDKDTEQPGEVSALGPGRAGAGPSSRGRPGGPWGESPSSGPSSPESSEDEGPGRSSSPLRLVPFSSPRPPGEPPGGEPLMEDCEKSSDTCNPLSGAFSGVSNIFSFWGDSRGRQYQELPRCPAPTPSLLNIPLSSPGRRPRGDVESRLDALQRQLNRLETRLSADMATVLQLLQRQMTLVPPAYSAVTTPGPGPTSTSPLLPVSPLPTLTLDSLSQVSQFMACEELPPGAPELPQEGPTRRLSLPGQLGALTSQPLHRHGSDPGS
row,SMILES,"hERG current change (%, negative = inhibition) at 10uM"
1,CC1=NNC(=O)C1CCC(=O)N/N=C/c1ccco1 (centres unmarked),2%
2,CCOc1ccc2nc(NC(=S)NCc3ccccc3)sc2c1,12.5%
3,Cc1ccccc1NCN1C(=O)C2C3C=CC(C3)C2C1=O (centres unmarked),6.34%
4,Cc1ccc(C2CC(c3ccccc3)=NN2c2ccccc2)o1 (centres unmarked),4.42%
5,CCn1cc([N+](=O)[O-])c(C(=O)NCc2ccc3c(c2)OCO3)n1,5.03%
6,CC(C)CC(=O)NNC(=O)C(C)C,21.7%
7,CCCCn1c(O)c(C=NC2CC3CCC2(C)C3(C)C)c(=O)[nH]c1=O (centres unmarked),0.0769%
8,CCOc1ccc2[nH]cc(C(=O)NCc3ccccc3)c(=O)c2c1,15.7%
9,CCOCCCNC(=O)CN1C(=O)CSc2ccc(S(=O)(=O)N3CCOCC3)cc21,24.7%
10,CCC(=O)Nc1cccc2ccccc12,16.4%
11,Cc1cc(C)nc(SC2CCCCC2O)n1 (centres unmarked),7.29%
12,COc1ccc(NC(=O)C(=O)N/N=C(\C)CC(=O)Nc2ccccn2)c(OC)c1,-19.3%
13,CCOC(=O)N1CCN(C(=O)C2CC(=O)N(Cc3ccc(OC)cc3)C2)CC1 (centres unmarked),3.44%
14,CN(Cc1nc(-c2cccnc2)no1)S(=O)(=O)c1ccc(Br)cc1,-46%
15,Cc1cccc(C(C)C)c1NC(=O)COC(=O)C1CC(=O)N(Cc2ccccc2)C1 (centres unmarked),0.7%
16,COc1cc(/C=C(\C#N)c2nc3c(s2)CCCC3)ccc1O,9.3%
17,COCC1CCCCN1C(=O)c1ccc2nc(Cc3ccc(OC)c(OC)c3)oc2c1 (centres unmarked),6.77%
18,CSCCC(NC(=O)CCNC(=O)c1ccccc1Cl)c1nc2ccccc2[nH]1 (centres unmarked),-3.89%
19,COc1ccc(CCC(=O)Nc2cccc(S(=O)(=O)N3CCCC3)c2)cc1OC,-13.4%
20,CC(=O)Nc1cccc(-n2c(=O)n(Cc3ccccc3)c(=O)c3[nH]cnc32)c1,7.98%
21,COc1ccc(NC(=S)N(CCCN2CCOCC2)Cc2cn(C)c3ccccc23)cc1,-16.8%
22,CCOC(=O)c1c(N2C(=O)C3C4C=CC(O4)C3C2=O)sc2c1CCCC2 (centres unmarked),-2.04%
23,Cc1cccc(-n2c(O)c(C=NC3CCS(=O)(=O)C3)c3ccccc3c2=O)c1C (centres unmarked),-54.1%

row,SMILES,"hERG current change (%, negative = inhibition) at 10uM"
1,Cc1c(C)c2ccc(OS(C)(=O)=O)cc2oc1=O,-58.4%
2,O=C(NCC(=O)N(Cc1cccs1)C(C(=O)NC1CCCC1)c1ccncc1)c1ccco1 (centres unmarked),-7.43%
3,CN(C)C(CNC(=O)CCCc1c[nH]c2ccccc12)c1ccco1 (centres unmarked),-13.7%
4,O=C(O)CCSC1CC(=O)N(c2ccccc2)C1=O (centres unmarked),12.8%
5,Cc1sc2ncnc(N[C@@H](Cc3c[nH]c4ccccc34)C(=O)O)c2c1C,15.7%
6,O=C(Nc1ccc(NS(=O)(=O)c2ccccc2)cc1)c1cccnc1,9.87%
7,O=C(Nc1ccccc1[N+](=O)[O-])C1C(c2ccccc2)=C1c1ccccc1,6.63%
8,O=C(Nc1ccc([N+](=O)[O-])cc1)c1cncc(Br)c1,-13.9%
9,C=CCn1c(=O)c2c3c(sc2n2c(Nc4ccc(C(=O)OCC)cc4)nnc12)CCCC3,5.32%
10,O=C1c2ccccc2N2C(=O)c3ccccc3[C@H]2N1c1ccccc1,-22.4%
11,COc1ccc(-c2nnc(NC(=O)C(C)C)o2)cc1,-3.15%
12,CC1c2cc3c(cc2CCN1CC(=O)Nc1ccccc1)OCCCO3 (centres unmarked),-1.37%
13,CN(/N=C/c1cccnc1)C1=NS(=O)(=O)c2ccccc21,-4.86%
14,N#CC(C#N)C(c1ccsc1)c1c(-c2ccccc2)[nH][nH]c1=O (centres unmarked),-3.36%
15,CN(C)P(=O)(NC(=O)c1cccn1C)N(C)C,47.3%
16,COc1ccccc1-c1nc(=S)c(C(C)=O)c(C)[nH]1,11.3%
17,Cc1cc(C)nc(SC(C)C(=O)N/N=C/c2cccs2)n1 (centres unmarked),-0.903%
18,CCN(CC)Cc1c(O)ccc2c(C)c(CC(=O)OC)c(=O)oc12.Cl,19.9%
19,Cc1ccc2[nH]c(=O)c(CN(Cc3cccnc3)Cc3nnnn3CC3CCCO3)cc2c1 (centres unmarked),-0.809%
20,COc1ccc(C=C(c2ccc(OC)cc2)c2ccc(OC)cc2)cc1,13%
21,Cc1c(CCC(=O)N[C@@H](CC(C)C)C(=O)O)c(=O)oc2cc3oc4c(c3cc12)CCCC4,-2.57%
22,COc1ccc(OC)c(Nc2cc3ccccc3c(=O)[nH]2)c1,20.2%
23,COc1ccc(-c2cc(C(F)F)n3ncc(C(=O)Nc4c(C)n(C)n(-c5ccccc5)c4=O)c3n2)cc1,8.05%

row,SMILES,"hERG current change (%, negative = inhibition) at 10uM"
1,COc1cc2c(cc1OC)C(COc1ccccc1OC)N(C(=O)c1ccco1)CC2 (centres unmarked),-15.6%
2,CC(C)C(=O)N1CCN(c2nc3ccc(Cl)cc3s2)CC1,-47.5%
3,O=C(CN1C(=O)COc2ccccc21)N1CCc2ccccc21,11.6%
4,CCn1ccnc1CN1CCCC(C(=O)c2cc(Cl)ccc2OC)C1 (centres unmarked),-73.3%
5,Cc1ccc(S(=O)(=O)NC(=NCc2ccccc2)c2ccc(F)cc2)cc1,4.78%
6,CC(C)Nc1nc(NC(C)(C)C)nc(Oc2ccc(=O)n(-c3ccccc3)n2)n1,3.15%
7,CCOC(=O)COn1c(=O)c(-c2cccs2)[n+]([O-])c2ccccc21,-20.4%
8,CC(C)(C)OC(=O)N1CCC[C@H]1C(=O)N/N=C/c1ccc2nccnc2c1,19.5%
9,Br.CCCN(CCC)C1CCc2ccc(O)cc2C1 (centres unmarked),-70%
10,O=C1Nc2ccccc2OCc2c1cccc2[N+](=O)[O-],-38.7%
11,COc1ccc(-c2nnc(SCc3c(C)noc3C)o2)cc1,-11.3%
12,CCC(C)[C@H](NC(=O)N1CCCCCC1)C(=O)O (some centres unmarked),9.71%
13,CC(=O)Nc1ccc(S(=O)(=O)Nc2ccc(=O)n(Cc3ccc(Cl)c(Cl)c3)c2)cc1,12.5%
14,Cc1cc(C=O)c(C)n1-c1ccc(NC2CCCCC2)c([N+](=O)[O-])c1,6.04%
15,O=C(CNC(=O)c1ccc2c(c1)OCO2)N/N=C/c1cc(Br)ccc1O,20.1%
16,Cc1ccc(OCCCNCCO)c(Br)c1.O=C(O)C(=O)O,-10.5%
17,Cc1cnc(C(=O)OCC(=O)NCCc2ccccc2)cn1,-3.4%
18,Cc1cc(C)c(NC(=O)CNC(=O)COC(=O)CN2C(=O)NC3(CCCC3)C2=O)c(C)c1,15.9%
19,CCCOc1ccc(N/C=C/C(=O)c2ccc(OC)c(OC)c2)cc1,-8.4%
20,CCOC(=O)C1CCN(C(=O)c2ccc(Cl)c(S(=O)(=O)N3CCCC3)c2)CC1,-13.8%
21,Cc1cccc2nc3c(nc12)-c1ccccc1C3=O,21%
22,Cc1ccc(N(Cc2ccccc2)C(=O)c2cc(S(=O)(=O)N3CCOCC3)ccc2N2CCCC2)cc1,5.59%
23,N#Cc1ccsc1NC(=O)CN1CCCCC1,-5.6%

row,SMILES,"hERG current change (%, negative = inhibition) at 10uM"
1,COc1cc(O)c2c(c1)OC(c1ccc(O)cc1)CC2=O (centres unmarked),-14.9%
2,CCOc1ccc(OCCOCCN2CCCC2)cc1.O=C(O)C(=O)O,0.376%
3,CCOc1cccc(C(=O)Nc2cc(-c3nn4c(C)nnc4s3)ccc2C)c1,-21.2%
4,CC(C)CCCN1C(Nc2ccccc2)=NC[C@@H]1C,-11.4%
5,CCOc1cc(CNc2cccc3ccccc23)cc(Br)c1OCC(=O)NC(C)(C)C,-7.17%
6,O=C(CN1C(=O)S/C(=C/c2ccncc2)C1=O)N1CCOCC1,-33.7%
7,C=Cc1ccc(Cn2nc(-c3ccccc3)ccc2=O)cc1,-2.93%
8,CC(C)CC(=O)Nc1cc2c3c(c1)C(C)C(=O)N3CCC2 (centres unmarked),17.5%
9,COc1ccc(NC(=O)CC2C(=O)N(c3cccc(OC)c3)C(=O)N2C2CCCCC2)cc1 (centres unmarked),13.4%
10,COc1ccc(CCC(=O)NNC(=O)c2ccc(F)cc2)cc1,6.02%
11,O=C(CSC1CC(=O)N(CC(c2ccccc2)c2ccccc2)C1=O)Nc1ccc(Cl)cc1 (centres unmarked),-5.42%
12,COC(=O)c1sccc1NC(=O)c1ccc(OC)cc1,17.8%
13,O=C(CNc1cccc([N+](=O)[O-])c1)N/N=C/c1ccc([N+](=O)[O-])o1,-36%
14,CCOc1ccc(NC(=O)CSc2nnc(Cn3cnc([N+](=O)[O-])n3)n2CC)cc1,12.4%
15,CN(C)S(=O)(=O)c1cccc(NC(=O)Cc2ccc(Cl)cc2)c1,-17.3%
16,O=C(NC(=S)Nc1cccc(O)c1)c1cncc(Br)c1,11.6%
17,O=C(COc1ccc2ccccc2c1)NNC(=O)Cc1cccc2ccccc12,6.39%
18,O=C(NCCc1ccc(Cl)cc1)c1ccc2c(c1)OCO2,-2.49%
19,CC(OC(=O)c1ccc(NC(=O)CC#N)cc1)C(=O)NCCC1=CCCCC1 (centres unmarked),-0.851%
20,CN(C)CCCn1cnc2c1c(=O)[nH]c(=O)n2Cc1ccccc1.Cl,13.9%
